From PubChem BioAssay AID504333 (National Center for Advancing Translational Sciences (NCATS), 2011)
Screen size: about 360,000 compounds; about 16,000 (4.4%) were called active. This list was built around the results that the source calls inconclusive (neither active nor inactive); the mix of calls is not that of the screen. Calls come from the whole dose curve; as a rule, active = well fitted inhibition curve with a large enough effect; inconclusive = small, poorly fitted or top-dose-only effect; inactive = no such curve, though single readings can be large or run the other way. Potencies of inconclusive entries are doubtful fits and often do not repeat.

What follows are compounds tested against Bromodomain adjacent to zinc finger domain protein 2B (Homo sapiens) (UniProt Q9UIF8) (assay: qHTS Assay for Inhibitors of BAZ2B). Settings: AlphaScreen BAZ2B-H3K14Ac peptide displacement; activity change, negative = inhibition: at 114 µM (top of the series) unless noted.
Chain of UniProt Q9UIF8 (Q9UIF8 whole entry, looked up, the tested form may be a part): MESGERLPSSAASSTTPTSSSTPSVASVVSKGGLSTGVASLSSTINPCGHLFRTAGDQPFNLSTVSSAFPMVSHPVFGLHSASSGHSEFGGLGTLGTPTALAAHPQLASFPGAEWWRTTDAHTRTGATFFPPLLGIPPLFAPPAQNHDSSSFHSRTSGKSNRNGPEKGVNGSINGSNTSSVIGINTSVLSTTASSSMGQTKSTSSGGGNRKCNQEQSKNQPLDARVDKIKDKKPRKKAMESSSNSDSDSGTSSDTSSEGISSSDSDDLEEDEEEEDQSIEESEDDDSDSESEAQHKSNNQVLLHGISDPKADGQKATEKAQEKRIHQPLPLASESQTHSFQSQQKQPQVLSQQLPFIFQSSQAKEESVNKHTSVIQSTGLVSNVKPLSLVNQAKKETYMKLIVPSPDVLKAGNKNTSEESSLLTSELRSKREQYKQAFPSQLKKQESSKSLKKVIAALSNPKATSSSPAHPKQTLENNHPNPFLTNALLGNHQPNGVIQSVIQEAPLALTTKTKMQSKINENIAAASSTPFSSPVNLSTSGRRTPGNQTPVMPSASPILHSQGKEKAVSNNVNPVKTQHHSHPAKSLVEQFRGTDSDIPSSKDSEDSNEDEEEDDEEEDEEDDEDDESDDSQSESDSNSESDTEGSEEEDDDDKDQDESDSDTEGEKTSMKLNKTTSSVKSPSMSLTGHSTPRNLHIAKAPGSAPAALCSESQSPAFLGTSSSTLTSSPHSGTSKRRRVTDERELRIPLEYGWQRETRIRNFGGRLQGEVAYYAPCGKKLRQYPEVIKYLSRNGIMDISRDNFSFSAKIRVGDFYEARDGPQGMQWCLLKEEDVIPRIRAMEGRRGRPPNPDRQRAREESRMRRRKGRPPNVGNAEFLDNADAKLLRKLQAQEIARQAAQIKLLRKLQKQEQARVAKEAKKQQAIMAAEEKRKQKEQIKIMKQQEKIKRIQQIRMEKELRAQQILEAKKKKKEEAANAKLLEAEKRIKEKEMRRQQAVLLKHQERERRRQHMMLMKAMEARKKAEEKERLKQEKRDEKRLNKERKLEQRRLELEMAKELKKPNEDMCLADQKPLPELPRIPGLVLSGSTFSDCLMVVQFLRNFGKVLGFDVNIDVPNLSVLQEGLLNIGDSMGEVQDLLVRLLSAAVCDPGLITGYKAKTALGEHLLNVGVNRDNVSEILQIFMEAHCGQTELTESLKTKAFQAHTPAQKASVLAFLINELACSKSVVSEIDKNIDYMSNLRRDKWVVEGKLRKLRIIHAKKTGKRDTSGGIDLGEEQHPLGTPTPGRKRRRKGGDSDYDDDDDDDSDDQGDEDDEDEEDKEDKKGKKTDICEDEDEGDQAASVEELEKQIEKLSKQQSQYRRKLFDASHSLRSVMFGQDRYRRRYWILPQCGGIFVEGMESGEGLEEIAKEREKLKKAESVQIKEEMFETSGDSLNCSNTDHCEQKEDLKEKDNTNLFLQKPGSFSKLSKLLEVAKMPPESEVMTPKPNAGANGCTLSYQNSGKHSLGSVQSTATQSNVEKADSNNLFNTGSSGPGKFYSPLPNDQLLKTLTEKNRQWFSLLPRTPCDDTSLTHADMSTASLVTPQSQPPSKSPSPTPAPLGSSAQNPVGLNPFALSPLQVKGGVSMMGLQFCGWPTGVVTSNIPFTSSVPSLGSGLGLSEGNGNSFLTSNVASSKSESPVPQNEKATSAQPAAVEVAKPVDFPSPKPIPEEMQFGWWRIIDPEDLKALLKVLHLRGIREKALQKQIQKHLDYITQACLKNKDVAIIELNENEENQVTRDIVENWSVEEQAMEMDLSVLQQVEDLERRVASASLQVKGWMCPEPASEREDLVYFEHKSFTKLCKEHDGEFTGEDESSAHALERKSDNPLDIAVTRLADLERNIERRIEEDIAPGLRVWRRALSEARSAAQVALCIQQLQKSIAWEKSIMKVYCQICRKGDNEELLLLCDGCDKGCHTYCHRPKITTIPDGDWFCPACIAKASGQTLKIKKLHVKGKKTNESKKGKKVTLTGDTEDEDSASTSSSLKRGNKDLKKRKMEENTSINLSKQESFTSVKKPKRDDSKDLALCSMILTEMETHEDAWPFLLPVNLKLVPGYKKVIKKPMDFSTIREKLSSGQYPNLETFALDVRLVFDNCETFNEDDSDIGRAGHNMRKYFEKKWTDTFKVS
Procedure, shortened: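 BAZ2B (50 nM) with biotin-H3(5-23)K14Ac peptide (50 nM) in PBS pH 7.4, 0.01% Tween-20, preformed 30 min, then compound 30 min at room temperature; top concentration 110uM. AlphaScreen streptavidin donor/nickel chelate acceptor beads (10 ug/mL final), 20 min dark, signal read.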
% is set by controls: 0 for no effect and ±100 for the full control effect; potency is the fitted concentration of half-maximal effect; tags give direction and shape of the fitted curve.
Note: nearly all actives have a fitted effect of over 60% in size.

Row | Compound | Potency | activity change, negative = inhibition
1 | Cc1cccc(C(=O)N2CCc3cc(-c4csc(NC(=O)CN5CCCC5)n4)ccc32)c1 | inconclusive: 31.6 µM [inhibitor, partial curve] | –
2 | CC(C)NC(=S)N/N=C/c1c[nH]c2ccccc12 | inconclusive: 50.1 µM [inhibitor, partial curve] | –
3 | COc1ccc2c(C)c(CCC(=O)NCc3ccccc3OC)c(=O)oc2c1 | – | inactive: -1.2%
4 | COc1ccc(CNc2oc(/C=C/c3cc(OC)c(OC)c(OC)c3)nc2C#N)cc1 | – | inactive: -23.4%
5 | Clc1ccc(/C=N/c2c(-c3ccc(Cl)cc3)nc3n2CCS3)cc1 | inconclusive: 7.08 µM [inhibitor, partial curve] | –
6 | CN(C)S(=O)(=O)c1ccc(C(=O)Nc2ccccc2[N+](=O)[O-])cc1 | inconclusive: 89.1 µM [inhibitor, single point] | –
7 | Cc1nn(-c2ccccc2)c2[nH]c(=O)c(CNc3ccc4c(c3)OCCO4)cc12 | active: 35.5 µM | –
8 | CCOc1ccccc1CN1CCN(Cc2nc3c(s2)CCCC3)CC1CCO (stereo not given) | inconclusive: 89.1 µM [inhibitor, single point] | –
9 | COc1ccc(S(=O)(=O)Nc2cc(OC)c(NC(=O)c3ccco3)cc2OC)cc1 | inconclusive: 50.1 µM [inhibitor, partial curve] | –
10 | Cc1ccc(NCc2ccccc2OCc2ccccc2F)cc1 | inconclusive: 79.4 µM [inhibitor, single point] | –
11 | CCOC(=O)N1CCN(S(=O)(=O)N2CCCC(C(=O)NCc3cc(Br)ccc3OC)C2)CC1 (stereo not given) | inconclusive: 89.1 µM [inhibitor, single point] | –
12 | Cc1cc(C)c(NC(=O)CSC2=Nc3ccccc3C3=NC(CC(=O)NCc4cccs4)C(=O)N23)c(C)c1 (stereo not given) | inconclusive: 89.1 µM [inhibitor, single point] | –
13 | CCOC(=O)C1CCCN(C(=S)Nc2ccc(Nc3ccccc3)cc2)C1 (stereo not given) | active: 35.5 µM | –
14 | CN(C)/C=N/c1nc(Sc2ccc(C(F)(F)F)cc2[N+](=O)[O-])n[nH]1 | – | inactive: -1.81%
15 | Cc1ccc(NC(=O)N2CCN(Cc3nc4ccc(C)cc4o3)CC2)cc1 | inconclusive: 79.4 µM [inhibitor, single point] | –
16 | O=C(CN1c2ccc(Br)cc2-c2ccccc2S1(=O)=O)N1CCCCC1 | – | inactive: -19.4%
17 | O=C(Cn1nc(CNc2ccc(Cl)cc2)[n+]2c1CCCCC2)c1ccccc1 | – | inactive: -9.78%
18 | N#Cc1c(-c2ccccc2)cc(-c2ccc3c(c2)OCO3)[nH]c1=O | – | inactive: -1.02%
19 | Cc1cccc(/C=N\NC(=O)c2ccc(Cl)cc2)c1O | inconclusive: 14.1 µM [inhibitor, single point] | –
20 | COc1ccc(Cn2c3nc4ccccc4nc3c3c(=O)n(Cc4ccco4)cnc32)cc1 | inconclusive: 89.1 µM [inhibitor, single point] | –
21 | N#Cc1nc(COc2ccccc2)oc1NCCCn1ccnc1 | inconclusive: 70.8 µM [inhibitor, single point] | –
22 | Fc1ccc(-c2csc(=Nc3cccc(C(F)(F)F)c3)n2Cc2ccc3c(c2)OCO3)cc1 | inconclusive: 39.8 µM [inhibitor, partial curve] | –
23 | O=c1cc(COc2ncnc3ccccc23)nc2sccn12 | inconclusive: 79.4 µM [inhibitor, partial curve] | –
24 | O=C(Oc1cccccc1=O)c1ccccc1 | inconclusive: 89.1 µM [inhibitor, partial curve, poor fit] | –

Row | Compound | Potency | activity change, negative = inhibition
25 | Cc1cc(C)c(C(=O)Nc2ccc(Br)c(C(F)(F)F)c2)c(C)c1 | inconclusive: 100 µM [inhibitor, single point] | –
26 | COc1cc(C2Nc3ccccc3C(=O)N2NS(C)(=O)=O)ccc1O (stereo not given) | – | inactive: -12.1%
27 | COc1ccc(-c2csc3ncnc(N4CCN(c5ccccc5[N+](=O)[O-])CC4)c23)cc1 | inconclusive: 10 µM [inhibitor, full curve, poor fit] | –
28 | Cc1ccc(-n2cc(CN(C)Cc3nccn3C)c(-c3ccc(F)cc3)n2)cc1 | active: 20 µM | –
29 | Cc1ccc(S(=O)(=O)Nc2cc(NC(=O)CN3CCOCC3)ccc2Cl)cc1 | active: 79.4 µM | –
30 | Cc1cc(Cl)ccc1OC(C)C(=O)Nc1ccc(C(=O)Nc2ccccc2C(=O)O)cc1 (stereo not given) | inconclusive: 89.1 µM [inhibitor, single point] | –
31 | CC(=O)N1N=C(c2ccccc2OC(=O)/C=C/c2ccccc2)CC1c1ccccc1 (stereo not given) | inconclusive: 44.7 µM [inhibitor, full curve] | –
32 | CN1CCc2c(sc3nc(SCC(=O)N4CCCCC4)n(-c4ccccc4)c(=O)c23)C1 | inconclusive: 79.4 µM [inhibitor, partial curve] | –
33 | COc1cc(NS(=O)(=O)c2c(C(=O)N3CCCCC3)c(C)n(C)c2C)cc(OC)c1OC | – | inactive: -4.18%
34 | c1ccc(-c2nc(NCc3cccnc3)c3ccccc3n2)cc1 | inconclusive: 56.2 µM [inhibitor, partial curve] | –
35 | N#C/C=C1/NC(=O)c2ccccc2S1 | – | inconclusive: -78.3% [inhibitor]
36 | O=C1C(NS(=O)(=O)c2cccs2)=C(N2CCOCC2)C(=O)c2ccccc21 | active: 39.8 µM | –
37 | CSc1nsc2nc(=O)c(/C=C3\C(C)=Nc4ccccc43)c(N)n12 | inconclusive: 79.4 µM [inhibitor, partial curve] | –
38 | CCc1ccc(NC(=O)c2ccc(Cn3nc(N4CCN(c5ccccc5)CC4)ccc3=O)o2)cc1 | active: 50.1 µM | –
39 | Cc1ccc(Cl)cc1-n1ncc2c(Nc3ccc4c(c3)OCCO4)ncnc21 | – | inactive: -3.11%
40 | Cc1ccc(Cn2nnc3c(=O)[nH]c(C4CCCN(C(=O)c5ccco5)C4)nc32)cc1 (stereo not given) | inconclusive: 89.1 µM [inhibitor, single point] | –
41 | Oc1c(Br)cc(Br)cc1C=Nc1ccc2c(c1)OCCO2 | – | inactive: 7.18%
42 | Cc1cccc(NC(=O)C2CCCN(S(=O)(=O)c3c(C)[nH]c(=O)[nH]c3=O)C2)c1C (stereo not given) | – | inactive: -17.3%
43 | Cc1ccc(N2C(=O)C(Cl)=C(N3CCCCCC3)C2=O)cc1 | inconclusive: 100 µM [inhibitor, single point] | –
44 | Cc1cc(C)n(-c2cc(O)c(-n3nc(C)cc3C)cc2O)n1 | – | inactive: -16.4%
45 | COc1cc(NC(=O)c2cnc(N)o2)cc(C(=O)Nc2cccc(C(F)(F)F)c2)c1 | inconclusive: 44.7 µM [inhibitor, partial curve] | –
46 | c1coc(-c2nnc3sc(Cc4cccs4)nn23)c1 | active: 50.1 µM | –
47 | CCc1ccc(NC(=O)Cn2c(=O)c(CNc3ccccc3)cc3cc(OC)c(OC)cc32)cc1 | inconclusive: 0.794 µM [inhibitor, full curve, poor fit] | –
48 | CCC(NC(=O)Nc1ccc(OC)c(OC)c1)c1c(-n2cccc2)sc2c1CCN(C)C2 (stereo not given) | active: 50.1 µM | –

Row | Compound | Potency | activity change, negative = inhibition
49 | CC(Sc1nc(N)cc(=O)[nH]1)C(=O)Nc1nc2c(s1)CCCC2 (stereo not given) | inconclusive: 79.4 µM [inhibitor, single point] | –
50 | COc1ccc(N2CC(NC(=O)C3CC3)CC2=O)cc1 (stereo not given) | – | inactive: -5.32%
51 | O=[N+]([O-])c1cc(CN2CCC(O)CC2)ccc1Cl | active: 50.1 µM | –
52 | COc1ccccc1C(=O)NCCSc1c(C)[nH]c2ccccc12 | inconclusive: 79.4 µM [inhibitor, partial curve] | –
53 | COCC(=O)N/N=C/c1ccc(Sc2nc3ccccc3s2)o1 | inconclusive: 89.1 µM [inhibitor, single point] | –
54 | CC(=O)c1ccc(C(=O)N2CCCC(Nc3ccc(C(C)C)cc3)C2)s1 (stereo not given) | inconclusive: 25.1 µM [inhibitor, partial curve] | –
55 | Cc1ccc(-n2nnnc2SCC(=O)NNC(=O)c2ccc([N+](=O)[O-])cc2)cc1 | inconclusive: 79.4 µM [inhibitor, single point] | –
56 | Cc1ccccc1SCC(=O)N1CCN(c2ccc(C(F)(F)F)cn2)CC1 | inconclusive: 89.1 µM [inhibitor, single point] | –
57 | Cc1cccc(NC(=O)CCN2CCCC(C)C2)c1 (stereo not given) | inconclusive: 89.1 µM [inhibitor, single point] | –
58 | CCOc1ccc(CN2CCNC(=O)C2CC(=O)N(C)Cc2nonc2C)cc1 (stereo not given) | – | inactive: -32.9%
59 | Cc1c(C(=O)NCc2ccoc2)oc2ccc3c(c12)C(=O)CC(C)(C)O3 | inconclusive: 79.4 µM [inhibitor, single point] | –
60 | C=CCNc1nc(NCc2ccccc2)c(C#N)c2c1CN(C)CC2 | inconclusive: 50.1 µM [inhibitor, partial curve] | –
61 | C/C=C/C=N/Nc1nc(C)cc(=O)[nH]1 | active: 50.1 µM | –
62 | COc1ccc(CN2CC(C(=O)NCCCN3CCCCCC3)CC2=O)cc1 (stereo not given) | inconclusive: 89.1 µM [inhibitor, single point] | –
63 | COc1ccc(S(=O)(=O)Nc2noc3ccccc23)cc1 | – | inactive: -16%
64 | O=C(Cc1c(Cl)cccc1Cl)NC1=NCCS1 | inconclusive: 89.1 µM [inhibitor, single point] | –
65 | Cc1nn(-c2ccccc2)c(OC(=O)c2ccccc2Cl)c1S(=O)(=O)c1ccccc1 | inconclusive: 89.1 µM [inhibitor, single point] | –
66 | Cc1nnc(NC(=O)CCC(=O)NCc2ccco2)s1 | inconclusive: 63.1 µM [inhibitor, partial curve, poor fit] | –
67 | Cc1cc(C)cc(-n2c(C)cc(/C=N/NC(=O)c3cccc([N+](=O)[O-])c3C)c2C)c1 | inconclusive: 35.5 µM [inhibitor, partial curve] | –
68 | O=C(CSc1nccn1-c1ccc(F)cc1)NCc1ccc(F)cc1 | inconclusive: 79.4 µM [inhibitor, single point] | –
69 | CC(=O)Nc1ccc(C(=O)NC(C)c2ccc(-n3ccnc3)cc2)cc1 (stereo not given) | – | inactive: -37.6%
70 | COc1cccc(N=Nc2c(C)[nH]n(-c3ccccc3)c2=O)c1 | active: 6.31 µM | –
